{"source": "the supplement of paper PMC3334620", "note": "Over roughly 33,000 sequences, “E-score (-0.5 to 0.5)” has its median near -0.043; the highest 2% begin near 0.37. The list shows a part of the results."}
{"biological_target": "T1, Upc2 (UniProt Q12151)", "T1 sequence": "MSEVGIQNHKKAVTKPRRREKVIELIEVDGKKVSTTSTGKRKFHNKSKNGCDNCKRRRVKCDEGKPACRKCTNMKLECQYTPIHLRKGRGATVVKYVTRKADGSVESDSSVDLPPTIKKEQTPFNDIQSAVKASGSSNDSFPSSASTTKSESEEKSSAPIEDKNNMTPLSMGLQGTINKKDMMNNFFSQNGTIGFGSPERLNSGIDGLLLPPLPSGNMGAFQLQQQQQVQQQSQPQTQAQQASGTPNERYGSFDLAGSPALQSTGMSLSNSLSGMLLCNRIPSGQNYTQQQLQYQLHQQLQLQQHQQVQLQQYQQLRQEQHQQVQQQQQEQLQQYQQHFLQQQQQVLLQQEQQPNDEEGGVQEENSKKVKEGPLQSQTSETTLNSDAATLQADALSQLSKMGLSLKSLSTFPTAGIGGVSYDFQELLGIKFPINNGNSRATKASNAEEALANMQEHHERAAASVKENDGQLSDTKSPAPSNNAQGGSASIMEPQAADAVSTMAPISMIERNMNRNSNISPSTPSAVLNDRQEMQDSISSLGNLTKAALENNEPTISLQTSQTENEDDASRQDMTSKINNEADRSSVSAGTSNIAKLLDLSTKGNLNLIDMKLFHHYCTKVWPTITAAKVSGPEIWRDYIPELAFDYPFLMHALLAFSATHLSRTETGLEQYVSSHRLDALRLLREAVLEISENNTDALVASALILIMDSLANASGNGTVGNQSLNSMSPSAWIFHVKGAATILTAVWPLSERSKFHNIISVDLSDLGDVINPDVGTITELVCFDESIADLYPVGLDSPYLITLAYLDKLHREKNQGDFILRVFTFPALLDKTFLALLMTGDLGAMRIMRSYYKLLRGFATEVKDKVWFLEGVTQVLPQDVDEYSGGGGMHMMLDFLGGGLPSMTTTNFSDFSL", "assay": "PBM E-score (8-mer binding enrichment) (E-score (-0.5 to 0.5)); higher = stronger / more preferred TF binding; most listed sequences are background and not binding sites", "details": "protein concentration: 200 nM; construct: GST-full length", "description": "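Universal 'all 10-mer' protein binding microarrays (Agilent AMADID 015681) probed with GST-tagged S. cerevisiae TFs (full-length or DBD) made by in vitro transcription/translation (PURExpress), about 100-200 nM. Bound TF was detected with fluorescent anti-GST. Each ungapped 8-mer (which stands for itself and its reverse complement) is scored by the PBM enrichment score (E-score), a modified Wilcoxon-Mann-Whitney statistic from -0.5 to +0.5, computed with the Universal PBM Analysis Suite. Scale: above 0.35 generally sequence-specific binding.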"}
{"sequence": "CGTACGCA", "PBM E-score": 0.345}
{"sequence": "TCCTGCAA", "PBM E-score": -0.187}
{"sequence": "GGGGCGAC", "PBM E-score": -0.231}
{"sequence": "CAAGACCG", "PBM E-score": -0.00149}
{"sequence": "ACTGCCTC", "PBM E-score": -0.118}
{"sequence": "CATGAGAC", "PBM E-score": -0.0663}
{"sequence": "CTCTGAAG", "PBM E-score": -0.148}
{"sequence": "ATCATCCA", "PBM E-score": -0.118}
{"sequence": "TGGCCTAA", "PBM E-score": -0.106}
{"sequence": "AACCGTCT", "PBM E-score": -0.118}
{"sequence": "TGCATCAA", "PBM E-score": 0.0205}
{"sequence": "ATATAAAG", "PBM E-score": -0.138}
{"sequence": "GGCGCATA", "PBM E-score": -0.0159}
{"sequence": "CCCACTAG", "PBM E-score": -0.252}
{"sequence": "GTGAGCTA", "PBM E-score": -0.206}
{"sequence": "CACATCGC", "PBM E-score": -0.112}
{"sequence": "AAAACGTC", "PBM E-score": 0.0906}
{"sequence": "AAAGCCAC", "PBM E-score": -0.0581}
{"sequence": "AGGCCCGC", "PBM E-score": -0.0638}
{"sequence": "GTCAAAAC", "PBM E-score": -0.0715}
{"sequence": "GATAGTAA", "PBM E-score": -0.00953}
{"sequence": "TATGTACA", "PBM E-score": -0.0556}
{"sequence": "AGTAATAG", "PBM E-score": 0.0647}
{"sequence": "CGATGGCC", "PBM E-score": 0.0435}
{"sequence": "CTCGACTA", "PBM E-score": -0.223}
{"sequence": "AGGGGCCA", "PBM E-score": -0.215}
{"sequence": "CGTAAGCC", "PBM E-score": 0.208}
{"sequence": "GTAGGTGA", "PBM E-score": -0.0476}
{"sequence": "TCAGATGA", "PBM E-score": -0.197}
{"sequence": "ATCTGTAG", "PBM E-score": -0.143}
{"sequence": "TACACGGA", "PBM E-score": 0.0585}
{"sequence": "GCCACAGC", "PBM E-score": -0.348}
{"sequence": "AACTCAAA", "PBM E-score": 0.063}
{"sequence": "AAGCGACG", "PBM E-score": 0.276}
{"sequence": "CAGGGCAC", "PBM E-score": 0.112}
{"sequence": "GCAGTACC", "PBM E-score": -0.124}
{"sequence": "GGTTTCGA", "PBM E-score": -0.121}
{"sequence": "ATGGGGAG", "PBM E-score": -0.16}
{"sequence": "TATCTAAA", "PBM E-score": 0.173}
{"sequence": "AGATTGTA", "PBM E-score": 0.0617}
{"sequence": "AAAAAGCC", "PBM E-score": -0.00267}
{"sequence": "GATCGCGA", "PBM E-score": 0.0566}
{"sequence": "CTGTACAA", "PBM E-score": 0.0214}
{"sequence": "TACGGAGA", "PBM E-score": 0.361}
{"sequence": "TGACGAAA", "PBM E-score": 0.00712}
{"sequence": "CCGGTAAG", "PBM E-score": 0.0284}
{"sequence": "GCGCTCTA", "PBM E-score": -0.0458}
{"sequence": "TAACGCGA", "PBM E-score": 0.101}
{"sequence": "CCGTACCC", "PBM E-score": 0.379}
{"sequence": "CGCCGCCA", "PBM E-score": -0.117}
{"sequence": "AAAACCTA", "PBM E-score": 0.135}
{"sequence": "GTTTAATA", "PBM E-score": 0.203}
{"sequence": "ACTGACTA", "PBM E-score": 0.102}
{"sequence": "AAGCCGAA", "PBM E-score": -0.0482}
{"sequence": "ACCTCTAT", "PBM E-score": -0.189}
{"sequence": "AATCCAAG", "PBM E-score": 0.00442}
{"sequence": "TCCGGACA", "PBM E-score": -0.224}
{"sequence": "TACCTATA", "PBM E-score": 0.0647}
{"sequence": "AAGTAAAA", "PBM E-score": -0.118}
{"sequence": "GCACACAA", "PBM E-score": -0.163}
{"sequence": "AAGTGTCA", "PBM E-score": -0.265}
{"sequence": "GCTCGTAA", "PBM E-score": 0.456}
{"sequence": "GCCACTAA", "PBM E-score": -0.181}
{"sequence": "ACTCGGCA", "PBM E-score": 0.0324}
{"sequence": "ATGATACC", "PBM E-score": 0.0985}
{"sequence": "AACGCTGC", "PBM E-score": 0.135}
{"sequence": "CAAATGTG", "PBM E-score": -0.0181}
{"sequence": "AGGGAGAT", "PBM E-score": -0.319}
{"sequence": "AAGTGAAC", "PBM E-score": 0.0685}
{"sequence": "ACAAAAGC", "PBM E-score": -0.0967}
{"sequence": "GTGCTCCA", "PBM E-score": -0.122}
{"sequence": "CGGAGACC", "PBM E-score": -0.178}
{"sequence": "CTGACAGA", "PBM E-score": -0.0162}
{"sequence": "TATCAATA", "PBM E-score": 0.0556}
{"sequence": "AACCACAC", "PBM E-score": 0.0708}
{"sequence": "ATTGGAAA", "PBM E-score": -0.124}
{"sequence": "AGTAAAAT", "PBM E-score": 0.0174}
{"sequence": "GCCTAACA", "PBM E-score": -0.122}
{"sequence": "GTACCTTA", "PBM E-score": 0.184}
{"sequence": "CAATGCAA", "PBM E-score": -0.0983}
{"sequence": "AGCCGCCA", "PBM E-score": -0.269}
{"sequence": "TCACGGAA", "PBM E-score": -0.0808}
{"sequence": "AAGCATCC", "PBM E-score": -0.266}
{"sequence": "CGGGCTCA", "PBM E-score": 0.0574}
{"sequence": "CTATTAAG", "PBM E-score": -0.227}
{"sequence": "GCCGTAGC", "PBM E-score": 0.0955}
